Here are results for 2 proteins from publication PMC5143173 (Structure (London, England : 1993), 2016).

As usually defined, the stoichiometry N is the number of molecules, sites or subunits per partner or assembly.

This series deals with the molecule itself. The series is described as follows: SAXS.

B1: Apoptosis-inducing factor AIF121 ([…]), wild type (domain or fragment)
chain: not shown
In the case of B1, the “stoichiometry N” value was 2.

B2: Apoptosis-inducing factor AIF78 ([…]), wild type (domain or fragment)
chain: not shown
For the protein B2, the “stoichiometry N” value was 2.
